Laboratory results taken from the supplement of paper PMC8728848.
The other results are listed elsewhere or left out.

What was measured:
Test in all cases: glycan array binding signal (z-score within array); higher = stronger binding
Conditions in all cases: glycan notation: IUPAC condensed, linker removed
[1] = target: Fuc(a1-2)[GalNAc(b1-3)]Gal
Procedure, shortened: (§1)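 The Consortium for Functional Glycomics database supplied 3228 glycan arrays, of which those lacking an available protein sequence were dropped. The binding signal, a within-array Z-score, was averaged across arrays of the same protein sequence and across linkers. Negative scores can be read as non-binding.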

Fuc(a1-3)GlcNAc = target: Fuc(a1-3)GlcNAc
Procedure, shortened: as §1

[2] = target: Fuc(a1-3)[Gal(b1-4)]Glc6S
Procedure, shortened: as §1

[3] = target: Fuc(a1-3)[Gal(b1-4)]GlcNAc
Procedure, shortened: as §1

[4] = target: Fuc(a1-3)[Gal(b1-4)]GlcNAc(b1-2)Man
Procedure, shortened: as §1

[5] = target: Fuc(a1-3)[Gal(b1-4)]GlcNAc(b1-2)Man(a1-3)[Fuc(a1-3)[Gal(b1-4)]GlcNAc(b1-2)Man(a1-6)]Man(b1-4)GlcNAc(b1-4)GlcNAc
Procedure, shortened: as §1

[6] = target: Fuc(a1-3)[Gal(b1-4)]GlcNAc(b1-2)Man(a1-3)[Fuc(a1-3)[Gal(b1-4)]GlcNAc(b1-2)Man(a1-6)]Man(b1-4)GlcNAc(b1-4)[Fuc(a1-6)]GlcNAc
Procedure, shortened: as §1

[7] = target: Fuc(a1-3)[Gal(b1-4)]GlcNAc(b1-3)Gal(b1-3)[Fuc(a1-4)]GlcNAc
Procedure, shortened: as §1

[8] = target: Fuc(a1-3)[Gal(b1-4)]GlcNAc(b1-3)Gal(b1-4)[Fuc(a1-3)]GlcNAc
Procedure, shortened: as §1

[9] = target: Fuc(a1-3)[Gal(b1-4)]GlcNAc(b1-3)Gal(b1-4)[Fuc(a1-3)]GlcNAc(b1-3)Gal(b1-4)[Fuc(a1-3)]GlcNAc
Procedure, shortened: as §1

[10] = target: Fuc(a1-3)[Gal(b1-4)]GlcNAc(b1-3)GalNAc
Procedure, shortened: as §1

[11] = target: Fuc(a1-3)[Gal(b1-4)]GlcNAc(b1-6)GalNAc
Procedure, shortened: as §1

[12] = target: Fuc(a1-3)[Gal(b1-4)]GlcNAc(b1-6)[Gal(b1-3)GlcNAc(b1-3)]Gal(b1-4)Glc
Procedure, shortened: as §1

[13] = target: Fuc(a1-3)[Gal(b1-4)]GlcNAc6S
Procedure, shortened: as §1

[14] = target: Fuc(a1-3)[Gal3S(b1-4)]Glc
Procedure, shortened: as §1

[15] = target: Fuc(a1-3)[Gal3S(b1-4)]GlcNAc
Procedure, shortened: as §1

[16] = target: Fuc(a1-3)[Gal3S(b1-4)]GlcNAc6S
Procedure, shortened: as §1

[17] = target: Fuc(a1-3)[GalNAc(b1-4)]GlcNAc
Procedure, shortened: as §1

[18] = target: Fuc(a1-3)[GalNAc(b1-4)]GlcNAc6S
Procedure, shortened: as §1

Fuc(a1-4)GlcNAc = target: Fuc(a1-4)GlcNAc
Procedure, shortened: as §1

Fuc(b1-3)GlcNAc = target: Fuc(b1-3)GlcNAc
Procedure, shortened: as §1

Gal(a1-2)Gal = target: Gal(a1-2)Gal
Procedure, shortened: as §1

Gal(a1-3)Gal = target: Gal(a1-3)Gal
Procedure, shortened: as §1

Gal(a1-3)Gal(b1-3)GlcNAc = target: Gal(a1-3)Gal(b1-3)GlcNAc
Procedure, shortened: as §1

[19] = target: Gal(a1-3)Gal(b1-3)GlcNAc(b1-2)Man
Procedure, shortened: as §1

[20] = target: Gal(a1-3)Gal(b1-3)GlcNAc(b1-2)Man(a1-3)[Gal(a1-3)Gal(b1-3)GlcNAc(b1-2)Man(a1-6)]Man(b1-4)GlcNAc(b1-4)GlcNAc
Procedure, shortened: as §1

[21] = target: Gal(a1-3)Gal(b1-3)GlcNAc(b1-3)GalNAc
Procedure, shortened: as §1

[22] = target: Gal(a1-3)Gal(b1-3)GlcNAc(b1-6)GalNAc
Procedure, shortened: as §1

[23] = target: Gal(a1-3)Gal(b1-3)[Fuc(a1-4)]GlcNAc(b1-2)Man(a1-3)[Gal(a1-3)Gal(b1-3)[Fuc(a1-4)]GlcNAc(b1-2)Man(a1-6)]Man(b1-4)GlcNAc(b1-4)GlcNAc
Procedure, shortened: as §1

Gal(a1-3)Gal(b1-4)Glc = target: Gal(a1-3)Gal(b1-4)Glc
Procedure, shortened: as §1

Gal(a1-3)Gal(b1-4)GlcNAc = target: Gal(a1-3)Gal(b1-4)GlcNAc
Procedure, shortened: as §1

[24] = target: Gal(a1-3)Gal(b1-4)GlcNAc(b1-2)Man
Procedure, shortened: as §1

[25] = target: Gal(a1-3)Gal(b1-4)GlcNAc(b1-2)Man(a1-3)[Gal(a1-3)Gal(b1-4)GlcNAc(b1-2)Man(a1-6)]Man(b1-4)GlcNAc(b1-4)GlcNAc
Procedure, shortened: as §1

[26] = target: Gal(a1-3)Gal(b1-4)GlcNAc(b1-3)GalNAc
Procedure, shortened: as §1

[27] = target: Gal(a1-3)Gal(b1-4)GlcNAc(b1-6)GalNAc
Procedure, shortened: as §1

[28] = target: Gal(a1-3)Gal(b1-4)[Fuc(a1-3)]GlcNAc
Procedure, shortened: as §1

[29] = target: Gal(a1-3)Gal(b1-4)[Fuc(a1-3)]GlcNAc(b1-2)Man(a1-3)[Gal(a1-3)Gal(b1-4)[Fuc(a1-3)]GlcNAc(b1-2)Man(a1-6)]Man(b1-4)GlcNAc(b1-4)GlcNAc
Procedure, shortened: as §1

Gal(a1-3)GalNAc = target: Gal(a1-3)GalNAc
Procedure, shortened: as §1

[30] = target: Gal(a1-3)[Gal(a1-4)]Gal(b1-4)GlcNAc
Procedure, shortened: as §1

[31] = target: Gal(a1-4)Gal(b1-3)GlcNAc(b1-2)Man(a1-3)[Gal(a1-4)Gal(b1-3)GlcNAc(b1-2)Man(a1-6)]Man(b1-4)GlcNAc(b1-4)GlcNAc
Procedure, shortened: as §1

Gal(a1-4)Gal(b1-4)Glc = target: Gal(a1-4)Gal(b1-4)Glc
Procedure, shortened: as §1

Gal(a1-4)Gal(b1-4)GlcNAc = target: Gal(a1-4)Gal(b1-4)GlcNAc
Procedure, shortened: as §1

[32] = target: Gal(a1-4)Gal(b1-4)GlcNAc(b1-2)Man(a1-3)[Gal(a1-4)Gal(b1-4)GlcNAc(b1-2)Man(a1-6)]Man(b1-4)GlcNAc(b1-4)GlcNAc
Procedure, shortened: as §1

[33] = target: Gal(a1-4)Gal(b1-4)GlcNAc(b1-3)Gal(b1-4)Glc
Procedure, shortened: as §1

Gal(a1-4)GlcNAc = target: Gal(a1-4)GlcNAc
Procedure, shortened: as §1

B1: VLRB.aGPA.23-GCN4-biotin (Petromyzon marinus) (protein)
chain: ACPSQCSCSGTEVNCAGKSLASVPAGIPTTTRVLYLNSNQITKLEPGVFDRLANLRELHLWGNQLVSLPPGVFDNLANLEKLWLNSNQLTSLPAGLFDRLVNLEHLGLCCMKLTELPSGAFDKLTRLKQLGLDQNQLKSIPDGAFARLPSLTHVWLHTNPWDCQCTDILYLSGWVAQHSSIVGEGWPWRHSPDSAKCSGTNTPVRAVTEASTSPSKCP
[1]
  glycan array binding signal (z-score): -0.082
Fuc(a1-3)GlcNAc
  glycan array binding signal (z-score): -0.085
[2]
  glycan array binding signal (z-score): -0.077
[3]
  glycan array binding signal (z-score): -0.075
[4]
  glycan array binding signal (z-score): -0.074
[5]
  glycan array binding signal (z-score): -0.079
[6]
  glycan array binding signal (z-score): -0.078
[7]
  glycan array binding signal (z-score): -0.071
[8]
  glycan array binding signal (z-score): -0.077
[9]
  glycan array binding signal (z-score): -0.076
[10]
  glycan array binding signal (z-score): -0.077
[11]
  glycan array binding signal (z-score): -0.061
[12]
  glycan array binding signal (z-score): -0.079
[13]
  glycan array binding signal (z-score): -0.062
[14]
  glycan array binding signal (z-score): -0.075
[15]
  glycan array binding signal (z-score): -0.065
[16]
  glycan array binding signal (z-score): -0.082
[17]
  glycan array binding signal (z-score): -0.065
[18]
  glycan array binding signal (z-score): -0.084
Fuc(a1-4)GlcNAc
  glycan array binding signal (z-score): -0.053
Fuc(b1-3)GlcNAc
  glycan array binding signal (z-score): -0.075
Gal(a1-2)Gal
  glycan array binding signal (z-score): 0.157
Gal(a1-3)Gal
  glycan array binding signal (z-score): -0.08
Gal(a1-3)Gal(b1-3)GlcNAc
  glycan array binding signal (z-score): -0.071
[19]
  glycan array binding signal (z-score): -0.086
[20]
  glycan array binding signal (z-score): -0.065
[21]
  glycan array binding signal (z-score): -0.084
[22]
  glycan array binding signal (z-score): -0.073
[23]
  glycan array binding signal (z-score): -0.077
Gal(a1-3)Gal(b1-4)Glc
  glycan array binding signal (z-score): -0.081
Gal(a1-3)Gal(b1-4)GlcNAc
  glycan array binding signal (z-score): -0.079
[24]
  glycan array binding signal (z-score): -0.087
[25]
  glycan array binding signal (z-score): -0.078
[26]
  glycan array binding signal (z-score): -0.083
[27]
  glycan array binding signal (z-score): -0.08
[28]
  glycan array binding signal (z-score): -0.075
[29]
  glycan array binding signal (z-score): -0.074
Gal(a1-3)GalNAc
  glycan array binding signal (z-score): -0.066
[30]
  glycan array binding signal (z-score): -0.069
[31]
  glycan array binding signal (z-score): -0.073
Gal(a1-4)Gal(b1-4)Glc
  glycan array binding signal (z-score): -0.072
Gal(a1-4)Gal(b1-4)GlcNAc
  glycan array binding signal (z-score): -0.071
[32]
  glycan array binding signal (z-score): -0.07
[33]
  glycan array binding signal (z-score): -0.08
Gal(a1-4)GlcNAc
  glycan array binding signal (z-score): -0.069
